Test results taken from PMC4336329 (PLoS ONE, 2015).
Hit rate of the full screen: of about 310,000 compounds, about 14,000 (4.5%) showed an effect of 50% or more. The effect is printed as a negative number. The list shows a part of the results.

What follows are compounds tested against human ether-à-go-go-related gene (hERG) potassium channel (human, UniProt Q12809) (assay: primary screen, population patch clamp on CHO cells stably expressing hERG).
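Also: peak tail current of the secondary pulse compared with the same well before compound.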

Sequence of human ether-à-go-go-related gene (hERG) potassium channel (Q12809 whole entry, looked up): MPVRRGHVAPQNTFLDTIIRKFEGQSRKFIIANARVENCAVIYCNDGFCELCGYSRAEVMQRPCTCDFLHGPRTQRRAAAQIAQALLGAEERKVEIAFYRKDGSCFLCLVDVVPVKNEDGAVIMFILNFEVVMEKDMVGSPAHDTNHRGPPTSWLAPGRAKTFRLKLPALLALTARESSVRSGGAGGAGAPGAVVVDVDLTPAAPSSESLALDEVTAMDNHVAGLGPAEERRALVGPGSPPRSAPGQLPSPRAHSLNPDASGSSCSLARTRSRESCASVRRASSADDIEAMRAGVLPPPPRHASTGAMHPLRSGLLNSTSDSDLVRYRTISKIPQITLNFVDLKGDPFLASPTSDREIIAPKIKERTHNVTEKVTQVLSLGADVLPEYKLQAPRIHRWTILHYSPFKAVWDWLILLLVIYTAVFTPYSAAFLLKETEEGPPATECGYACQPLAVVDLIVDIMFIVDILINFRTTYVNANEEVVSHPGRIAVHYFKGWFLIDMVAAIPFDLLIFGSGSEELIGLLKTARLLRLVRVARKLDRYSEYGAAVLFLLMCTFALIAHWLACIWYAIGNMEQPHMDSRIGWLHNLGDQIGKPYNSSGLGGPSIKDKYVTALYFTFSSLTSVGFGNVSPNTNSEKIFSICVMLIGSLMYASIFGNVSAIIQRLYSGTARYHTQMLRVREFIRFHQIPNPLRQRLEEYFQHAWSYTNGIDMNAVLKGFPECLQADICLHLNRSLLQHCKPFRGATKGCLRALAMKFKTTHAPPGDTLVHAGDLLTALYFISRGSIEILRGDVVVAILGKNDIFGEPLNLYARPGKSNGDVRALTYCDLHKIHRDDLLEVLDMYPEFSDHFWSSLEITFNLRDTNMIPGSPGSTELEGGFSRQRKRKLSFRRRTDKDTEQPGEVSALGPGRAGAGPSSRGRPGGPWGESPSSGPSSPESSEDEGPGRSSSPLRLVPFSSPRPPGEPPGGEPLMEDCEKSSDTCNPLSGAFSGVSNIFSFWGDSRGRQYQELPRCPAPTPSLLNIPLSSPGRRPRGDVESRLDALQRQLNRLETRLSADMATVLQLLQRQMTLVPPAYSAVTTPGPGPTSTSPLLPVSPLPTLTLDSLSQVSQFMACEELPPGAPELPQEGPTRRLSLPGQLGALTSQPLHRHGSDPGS

| SMILES | hERG current change (%, negative = inhibition) at 10uM [%] |
| --- | --- |
| CC(OC(=O)c1ccc([N+](=O)[O-])s1)C(=O)NC1CCCCC1C (centres unmarked) | 3.13 |
| CCOC(=O)N1CC=C2C(C#N)=C(N)C(C#N)(C#N)[C@H](c3cccs3)C2C1 (some centres unmarked) | -2.45 |
| O=C(Oc1c(-c2ccccc2)c(=O)n2c3c(cccc13)CC2)c1ccco1 | -62 |
| COc1ccc(/C=C(\NC(=O)c2ccco2)C(=O)N2CCCCC2)cc1 | 19.7 |
| Cc1ccccc1-n1c(SCc2cccc(F)c2)nc2[nH]ncc2c1=O | -26 |
| Nc1ccn(CC(=O)NCc2ccc3[nH]ccc3c2)c(=O)n1 | 20.5 |
| COCCN(C(=S)Nc1ccccc1OC)C1CCN(C(C)=O)CC1 | 9.71 |
| Cc1ccc(Cc2nnc(SCC(=O)Nc3c(C)cccc3C)[nH]c2=O)cc1 | -9.17 |
| Cc1ccccc1OCCn1cc(/C=C(\C#N)C(=O)NCc2ccco2)c2ccccc21 | 3.64 |
| N#CCC(=O)Nc1ccc(C(=O)OCC(=O)Nc2ccccc2Sc2ccccc2)cc1 | 5.7 |
| COCC(=O)Nc1nc2n(n1)C(c1ccc(Cl)cc1)CC(c1ccc(OC)cc1)N2 (centres unmarked) | -73.8 |
| COc1cc(/C=C/C(=O)OCC(=O)Nc2ccc([N+](=O)[O-])cc2)ccc1O | -18.9 |
| Cc1[nH]c2ccccc2c1C(c1ccncc1)N1CCN(c2ccccn2)CC1 (centres unmarked) | 8.61 |
| CCOc1ccc(-c2noc(=O)[nH]2)cc1 | -2.85 |
| CCc1ccccc1NC(=S)N(CCN1CCOCC1)C1CCN(C(C)=O)CC1 | 21.9 |
| CCc1ccccc1N(CC)C(=O)c1cn(CC)c(=O)c2cc(OC)c(OC)cc12 | 4.01 |
| COc1cccc(/C=N/NC(=O)c2nnn(-c3nonc3N)c2C(C)C)c1 | 11.4 |
| C/C(CC(C)(C)c1ccccc1)=N\NS(=O)(=O)c1ccccc1 | 13.9 |
| CCC(C)(C)NC(=O)C(c1ccccc1Cl)N(C(=O)CCC(=O)Nc1cc(C)on1)C(C)(C)C (centres unmarked) | -5.44 |
| O=S1(=O)C[C@@H](N2CCOCC2)[C@H](N2CCOCC2)C1 | 13.3 |
| O=[N+]([O-])c1ccc(Nc2ccccc2O)c2nonc12 | 8.01 |
| CC(=O)N(c1ccccc1)c1ccc([N+](=O)[O-])cc1[N+](=O)[O-] | -21 |
| CCOc1ccccc1NC(=O)c1nnn(-c2ccc3c(c2)OCCO3)c1N | 15.4 |
| COC(=O)c1cc(NC(=O)Cc2ccc(OC)c(OC)c2)cc(C(=O)OC)c1 | 7.39 |
| COc1ccc(-c2nnc(SCC#CCO)o2)cc1OC | 4.93 |
| O=C(NCCN1C(=O)C2C3C=CC(C3)C2C1=O)Nc1cccnc1 (centres unmarked) | 9.06 |
| Oc1ccccc1N1CCN(C(=S)NCc2ccccc2)CC1 | -18.2 |

| SMILES | hERG current change (%, negative = inhibition) at 10uM [%] |
| --- | --- |
| Cc1noc(C)c1COc1ccc(C(=O)NNC(=O)c2ccccc2F)cc1 | -2.81 |
| COc1ccccc1CN(Cc1cc2cc(C)cc(C)c2[nH]c1=O)Cc1nnnn1CC1CCCO1 (centres unmarked) | -6.19 |
| CCOC(=O)C1CCN(S(=O)(=O)Cc2ccc(Cl)cc2)CC1 | 1.25 |
| COc1ccc(CNC(=O)[C@H](C)NC(=O)N2CCn3c2nc2ccccc23)cc1 | -57.7 |
| Cc1ccc2nc(NC(=O)CN3C(=O)C4CC=CCC4C3=O)sc2c1 (centres unmarked) | 2.18 |
| CCC(C)/C=C(C)/C=C/C1=CC2=C(Cl)C(=O)C(C)(OC(C)=O)C(=O)C2=CO1 (centres unmarked) | 4.55 |
| COc1ccc2c(c1)CC/C(=C/c1cc(OC)c(OC)c(OC)c1)C2=O | -1.54 |
| CN(CCCNC(=O)CN1C(=O)CC(C)(C)S(=O)(=O)c2ccccc21)C1CCCCC1 | 3.34 |
| CSCCOC(=O)C1=C(C)Nc2ccc(C)cc2S1 | -10 |
| COc1cccc(N(C(=O)c2snc(C(N)=O)c2N)C(C(=O)NCc2ccccc2)c2ccc(O)cc2)c1 (centres unmarked) | -37.2 |
| CC1(C)C([N+](=O)[O-])C(c2ccc(F)cc2)NC(c2ccc(F)cc2)C1[N+](=O)[O-] (centres unmarked) | 15.1 |
| O=C(NC(=S)NCCN1CCOCC1)c1ccccc1Br | 3.35 |
| CC(=O)NC1CCCN(O)C(=O)/C=C(\C)CCOC(=O)C(NC(C)=O)CCCN(O)C(=O)/C=C(\C)CCOC(=O)C(NC(C)=O)CCCN(O)C(=O)/C=C(\C)CCOC1=O (centres unmarked) | -8.68 |
| O=C1NC(=S)N/C1=C/c1cc([N+](=O)[O-])ccc1N1CCOCC1 | -62.9 |
| COc1cc(/C=N/n2c(-c3cc(C)[nH]n3)n[nH]c2=S)cc(OC)c1OC | 18.7 |
| CCOc1ccc(C(=O)CCC(=O)N2CCC(C(=O)OC)CC2)cc1 | 5.17 |
| Cc1occc1C(=O)Nc1cccc(C(F)(F)F)c1 | -3.42 |
| CN(C)c1ccc(NC(=O)CSCc2nc3c(nnn3Cc3ccc(F)cc3)c(=O)[nH]2)cc1 | -5.05 |
| Cc1cc(=O)oc2c3c(cc(OCC(=O)NCc4ccncc4)c12)OC(C)(C)CC3 | -27.7 |
| Cc1c(C(=O)N2CCC(C(N)=O)CC2)oc2ccc(Br)cc12 | -20.9 |
| COc1ccc(OC)c(C(=O)N2CCC(C(=O)c3ccc(F)cc3)CC2)c1 | -4.44 |
| Cc1cccc(NC(=O)c2nc[nH]c2C(=O)N[C@H](C)c2ccccc2)c1 | 9.28 |
| O=C(O)CC1S/C(=N/N=C2CCCCC2)N(c2ccccc2)C1=O (centres unmarked) | 10.3 |
| CN1CCC(=NNC(=O)c2cn(-c3ccccc3)nc2-c2ccccc2)CC1 | 5.43 |
| Cc1ccc(CNC(=O)C2CCN(S(=O)(=O)c3ccc4c(c3)CC(C)N4C(=O)C3CC3)CC2)cc1 (centres unmarked) | -2.56 |
| CCn1cc(C(=O)NCc2ccco2)c2cc(OC)c(OC)cc2c1=O | -20.9 |
